PubChem BioAssay AID588855 (National Center for Advancing Translational Sciences (NCATS), 2011)
Hit rate of the full screen: of about 410,000 compounds, about 5,000 (1.2%) were called active. The shares of active, inactive and inconclusive entries below differ from those in the screen. The call rests on the fitted dose curve; in most records, active means well fitted inhibition curve with a large enough effect; inconclusive means small, poorly fitted or top-dose-only effect; inactive means no such curve, though single readings can be large or run the other way. Potencies of inconclusive entries are doubtful fits and often do not repeat.

Assay: qHTS for Inhibitors of TGF-b; further: nearly all actives have a fitted effect of over 65% in size
Conditions: HepG2 CAGA-GFP TGF-b/SMAD3 reporter, GFP fluorescence, 18 h, TGF-beta stimulated, 500 pg/mL final; series mostly up to 46.1 µM; activity, negative = inhibition: at the top concentration
In short: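 Inhibition was scored as loss of TGF-beta-induced (500 pg/mL final, 18 hours, 37 degrees C) GFP in HEPG2 cells carrying a CAGA-GFP reporter, in DMEM with 1% FBS. Well GFP was summed per cell; Activity was normalised to unstimulated and stimulated DMSO wells, then concentration-response fitting.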
On the % scale 0 is the no-effect control and ±100 the full control effect; potency means the concentration at half of the fitted maximal effect; tags describe the fitted curve by direction and shape.

Row | Compound | Potency | activity, negative = inhibition
1 | COc1ccc(CNCCC(c2ccc3c(c2)OCO3)c2ccccc2OC)cc1 (configuration not stated) | inconclusive: 22.4 µM [inhibitor, partial curve, poor fit] | 
2 | CC1(C)CC(/C=C/c2ccccc2)=Nc2ccccc2N1 | inconclusive: 35.5 µM [inhibitor, single point] | 
3 | O=C(Cn1cc(S(=O)(=O)Cc2cccc(Cl)c2)c2ccccc21)Nc1ccccc1Cl |  | inactive: -12.1%
4 | C[n+]1cc(C(=O)N2CCCCC2)ccc1/C=C/c1c[nH]c2ccccc12 |  | inactive: 49%
5 | CCCN1C(=O)/C(=C/c2ccc(C)s2)NC1=S |  | inactive: -10.2%
6 | CN(C)S(=O)(=O)c1cccc(NC(=S)NCc2ccc3c(c2)OCO3)c1 | inconclusive: 0.794 µM [inhibitor, full curve, poor fit] | 
7 | COc1ccc(Cn2cc(C(=O)c3ccc(C)c(C)c3)c(=O)c3ccccc32)cc1 | inconclusive: 35.5 µM [inhibitor, single point] | 
8 | C#CCNC(=O)C1=C[C@@H](c2coc3ccccc3c2=O)[C@H](CCCO)[C@@H](OCC)O1 | inconclusive: 7.08 µM [inhibitor, full curve, poor fit] | 
9 | COCCCNC(=O)Cn1c(=O)nc(-c2ccccc2)c2ccccc21 |  | inactive: 12.7%
10 | CC1(Cc2ccc(F)cc2)C(=O)Nc2c(Cl)cccc21 (configuration not stated) | inconclusive: 5.62 µM [inhibitor, single point] | 
11 | FC(F)(F)c1ccccc1Nc1nccs1 | inconclusive: 6.31 µM [inhibitor, single point] | 
12 | COC(=O)C1CN(C(=O)C(C)Oc2ccc(F)cc2)c2ccccc2O1 (configuration not stated) |  | inactive: 0%
13 | Cc1cc[n+](C2CCCCC2)cc1 | inconclusive: 17.8 µM [inhibitor, single point] | 
14 | CC1=C(C(=O)N2CCOCC2)CC(CC(=O)NC2CCCCC2)C(=O)N1Cc1ccc(F)cc1 (configuration not stated) |  | inactive: 0.87%
15 | CCn1c2ccccc2c2cc(NS(=O)(=O)c3ccccc3C)ccc21 | inconclusive: 0.1 µM [inhibitor, full curve, poor fit] | 
16 | Cc1cccc(CN2C[C@]34CC[C@@H](C[C@@H]3S2(=O)=O)O4)c1 |  | inactive: 3.88%
17 | Cc1ccnc(N2CCC(C(=O)Nc3ccc(Oc4ccccc4)cc3)CC2)n1 |  | inactive: -12.3%
18 | Cc1ccc(S(=O)(=O)/N=C2\C=C(Nc3ccc(O)cc3)C(=O)c3ccccc32)cc1 | active: 1.26 µM | 
19 | COc1cc2ncc(C(=O)c3ccc(C)cc3)c(N3CCCCC3)c2cc1OC | inconclusive: 7.08 µM [inhibitor, full curve, poor fit] | 
20 | O=C(NCc1ccccc1)Nc1cccn(Cc2ccc(F)cc2)c1=O |  | inactive: 2.18%
21 | Cc1cc(N2CCN(C(=O)c3ccco3)CC2)n2nc(C)nc2n1 |  | inactive: 4.61%
22 | O=S(=O)(Nc1cnc2ccccc2c1)N1CCCCCC1 |  | inactive: -4.62%
23 | COc1ccc(CNC(=O)Nc2ccc3c(c2)N(C)C(=O)c2ccccc2S3)cc1OC | inconclusive: 20 µM [inhibitor, partial curve, poor fit] | 

Row | Compound | Potency | activity, negative = inhibition
24 | Cc1ccc(OC(C)C(=O)Nc2ccc(S(=O)(=O)N3CCOCC3)cc2)cc1 (configuration not stated) | inconclusive: 35.5 µM [inhibitor, partial curve, poor fit] | 
25 | CCOc1ccc(NS(=O)(=O)c2cccc(C(=O)N3CCN(C/C=C/c4ccccc4)CC3)c2)cc1 | inconclusive: 25.1 µM [inhibitor, single point] | 
26 | CC(=O)NC(CC(=O)OCC(=O)N1CCN(S(=O)(=O)c2ccc(C)cc2C)CC1)c1ccccc1 (configuration not stated) | inconclusive: 7.08 µM [inhibitor, full curve, poor fit] | 
27 | Cc1cccc(NC(=O)C(C)SCc2ccccc2)c1 (configuration not stated) | inconclusive: 8.91 µM [inhibitor, partial curve, poor fit] | 
28 | Cc1ccc(S(=O)(=O)N(CC(=O)Nc2ccc(Cl)cc2)C(=O)N2CCN(C)CC2)cc1 |  | inactive: -8.14%
29 | Cc1coc2cc3oc(=O)c(CC(=O)NCc4cccc(Cl)c4)c(C)c3cc12 | inconclusive: 11.2 µM [inhibitor, partial curve, poor fit] | 
30 | Cc1cccc(NC(=O)COc2ccc(-c3nn(C)c(=O)c4ccccc34)cc2)c1 | inconclusive: 15.8 µM [inhibitor, partial curve, poor fit] | 
31 | O=[N+]([O-])c1ccc(N=Nc2ccc(O)cc2O)cc1 | inconclusive: 22.4 µM [inhibitor, partial curve, poor fit] | 
32 | CCOc1ccc(CCNC(=O)CCCc2nnc3n(CC)c(=O)c4sccc4n23)cc1OCC | inconclusive: 3.16 µM [inhibitor, partial curve] | 
33 | Cc1cc2cc(C)c3nnc(SCC(=O)NCc4ccco4)n3c2cc1C | inconclusive: 22.4 µM [inhibitor, single point] | 
34 | CCCCCCCC(=O)N/N=C/c1ccc(Br)cc1 |  | inactive: -10.8%
35 | Cc1cccc(C(=O)Nc2cccc(S(=O)(=O)NCc3ccco3)c2)c1 |  | inactive: 0.0215%
36 | Cc1cc(S(=O)(=O)NCC(c2ccco2)S(=O)(=O)c2cccs2)ccc1F (configuration not stated) | inconclusive: 7.94 µM [inhibitor, partial curve, poor fit] | 
37 | Nc1nc(=S)[nH]c2c1C1(CCCCC1)Cc1ccccc1-2 |  | inactive: 6.19%
38 | Cc1cccc2c1-c1sc(C(=O)NCCCN3CCCC(C)C3)cc1CO2 (configuration not stated) | inconclusive: 25.1 µM [inhibitor, single point] | 
39 | O=C(Cc1ccc(O)cc1)NCCNC(=S)NCc1ccccc1 | inconclusive: 0.224 µM [inhibitor, full curve, poor fit] | 
40 | Cc1ccc(CCNC(=O)c2c3c(nc4ccccc24)C(=O)N(C2CCCCC2)C3)cc1 | inconclusive: 35.5 µM [inhibitor, single point] | 
41 | Cc1nc2ccc(S(=O)(=O)Nc3cccc(-c4nc5cccnc5s4)c3)cc2s1 | inconclusive: 17.8 µM [inhibitor, partial curve, poor fit] | 
42 | Cc1ccc(Oc2ccc(S(=O)(=O)Nc3ccc(C(=O)O)cc3)cc2)cc1 | inconclusive: 35.5 µM [inhibitor, partial curve, poor fit] | 
43 | Cc1cccc(CNC(=O)c2ccc3nc(Cc4ccccc4)oc3c2)c1 |  | inactive: -2.69%
44 | CCN(CC(=O)Nc1ccc([N+](=O)[O-])cc1OC)CC(=O)NC(C)(C)C |  | inactive: 16.8%
45 | O=c1[nH]c(/C(Cl)=C/c2c(F)cccc2Cl)nc2cc(Cl)ccc12 | inconclusive: 12.6 µM [inhibitor, single point] | 
46 | CCOC(=O)c1cnc2c(ccc3ccccc32)c1NCCCN(C)C | inconclusive: 35.5 µM [inhibitor, single point] | 

Row | Compound | Potency | activity, negative = inhibition
47 | COc1ccc(C2c3ccc(O)cc3Oc3ncn4nc(-c5ccco5)nc4c32)cc1OC (configuration not stated) |  | inactive: 5.48%
48 | c1ccc2c(c1)nc(N1CCOCC1)c1nncn12 |  | inactive: 21.9%
49 | CCc1ccc(S(=O)(=O)c2cn(Cc3ccccc3F)c3cc(OC)c(OC)cc3c2=O)cc1 | inconclusive: 4.47 µM [inhibitor, partial curve] | 
50 | CCCCCCCCCCC[N+](C)(C)CC/C=C1/c2ccccc2Sc2ccc(Cl)cc21 | inconclusive: 35.5 µM [inhibitor, single point] | 
51 | NC(=O)c1ccc(C(F)(F)F)n(Cc2c(Cl)cccc2Cl)c1=O | inconclusive: 17.8 µM [inhibitor, single point] | 
52 | CC(C)C(c1nnnn1Cc1ccc2c(c1)OCO2)N1CCN(C)CC1 (configuration not stated) | inconclusive: 5.62 µM [inhibitor, single point] | 
53 | Cc1ccc(S(=O)(=O)N(Cc2ccccc2)C(C)C)cc1 | inconclusive: 10 µM [inhibitor, partial curve, poor fit] | 
54 | COc1cccc(Cn2c(NCc3cccnc3)nc3c2c(=O)n(C)c(=O)n3C)c1 | inconclusive: 15.8 µM [inhibitor, partial curve] | 
55 | O=C(CN1C(=O)c2ccccc2C1=O)Nc1ccccc1 | inconclusive: 17.8 µM [inhibitor, single point] | 
56 | COC(=O)c1cc(NC(=O)CSc2nncn2C)cc(C(=O)OC)c1 |  | inactive: 4.85%
57 | CC(=O)c1ccc(NS(=O)(=O)c2ccc3[nH]c4c(c3c2)CCCC4)cc1 | inconclusive: 28.2 µM [inhibitor, single point] | 
58 | CCOC(=O)[C@@H]1[C@H]2COc3ccccc3[C@@H]2N2C(=O)N(c3ccc(Cl)cc3)C(=O)[C@]12C | inconclusive: 3.98 µM [inhibitor, partial curve, poor fit] | 
59 | Cc1ccc(CNC(=O)c2c[nH]n3c(=O)c(Cc4ccc(Cl)cc4)c(C)nc23)cc1 | inconclusive: 25.1 µM [inhibitor, single point] | 
60 | O=C1CC2c3ccccc3C1C1C(=O)N(CCO)C(=O)C21 (configuration not stated) | inconclusive: 3.55 µM [inhibitor, single point] | 
61 | O=C(CN1CCN(CC(=O)Nc2ccccc2Cl)CC1)Nc1ccc(F)c(F)c1 | inconclusive: 35.5 µM [inhibitor, single point] | 
62 | CCOC(=O)c1c(C)[nH]c(C)c1S(=O)(=O)N1CCCC(C(=O)NCc2ccc(Cl)cc2)C1 (configuration not stated) | inconclusive: 3.55 µM [inhibitor, single point] | 
63 | Cc1ccccc1S(=O)(=O)NC1OC(=O)C(Cl)=C1Cl (configuration not stated) | inconclusive: 15.8 µM [inhibitor, single point] | 
64 | COc1ccc(CCNCC(O)Cn2c3ccccc3c3ccccc32)cc1OC (configuration not stated) | inconclusive: 28.2 µM [inhibitor, single point] | 
65 | C=CCn1c(N)c(C(=O)OC(C)(C)C)c2nc3ccccc3nc21 |  | inactive: -7.43%
66 | COC(=O)[C@@H](c1ccccc1)N(C)S(=O)(=O)c1cccc(S(=O)(=O)N(C)[C@@H](C(=O)OC)c2ccccc2)c1 |  | inactive: -2.57%
67 | N#CCCN(C(=O)Nc1ccc(Cl)c(Cl)c1)c1ccccc1 |  | inactive: -5.02%
